According to PubChem BioAssay AID652104 (National Center for Advancing Translational Sciences (NCATS), 2013):
Where “and” joins values, the source holds several entries; their conditions need not be identical. Identical values can stand only once. Out of some 410,000 compounds screened, about 7,200 (1.8%) were called active. Inconclusive results, whose numbers are uncertain, are shown with a selection of clear calls. The call rests on the fitted dose curve; in most records, active means well fitted activation curve with a large enough effect; inconclusive means small, poorly fitted or top-dose-only effect, or another doubt; inactive means no such curve, though single readings can be large or run the other way. Potencies of inconclusive entries are doubtful fits and often do not repeat.

assay: qHTS of TDP-43 Inhibitors; settings: TDP-43 expressing yeast growth rescue, BacTiter-Glo, 24 h; growth rescue (activation): at 46.1 µM (top of the series) unless noted; further: nearly all actives have a fitted effect of over 50% in size; on growth rescue (activation): % of control where 0% means no effect
Outline: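 Cell-based yeast growth screen: TDP-43 expression induced in galactose, inoculum OD600=0.02 after raffinose pregrowth to mid-log. Read-out BacTiter-Glo luminescence at 24 hr, 30 deg C; inhibition of toxicity seen as signal increase.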
Potency means the concentration at half of the fitted maximal effect; tags describe the fitted curve by direction and shape.

Row | Structure (SMILES) | Potency | growth rescue (activation)
1 | CC(=O)Nc1ccc(S(=O)(=O)N2CCSc3ccccc32)cc1 | inconclusive: 3.55 µM [activator, partial curve] | 
2 | CN(c1cccc(Cl)c1)S(=O)(=O)c1cccc(C(=O)Nc2nc3ccccc3[nH]2)c1 | inconclusive: 35.5 µM [activator, single point] | 
3 | Cc1ncsc1CCOC(=O)C12CC3CC(CC(C3)C1)C2 | active: 20 µM | 
4 | Fc1ccc(NCc2nnc(SCc3ccccc3)o2)cc1 | inconclusive: 14.1 µM [activator, single point] | 
5 | Cc1ccccc1NC(=O)COc1ccc(Br)cc1C | inconclusive: 3.55 µM [activator, partial curve] | 
6 | CCCCCCCCCCCCN1C(=O)CSC1c1cccnc1 (stereo unspecified) | active: 20 µM | 
7 | C[C@@H](CSc1ccccc1)CN1CC[C@H](O)CCC1=O | inconclusive: 1.78 µM [activator, partial curve] | 
8 | Cc1ccc2c(C)c(C(=O)N(Cc3ccc(Cl)cc3)C3CCS(=O)(=O)C3)oc2c1 (stereo unspecified) | inconclusive: 35.5 µM [activator, partial curve, poor fit] | 
9 | OC(COc1ccc(Cl)cc1)CSc1ccccn1 (stereo unspecified) | inconclusive: 7.08 µM [activator, full curve, poor fit] | 
10 | O=C1[C@@H]2CSC(c3ccc(C(F)(F)F)cc3)N2C(=O)N1c1ccccc1 (stereo partly specified) | active: 12.6 µM | 
11 | CC(=O)C1=CCC(c2ccc(F)cc2)N(S(=O)(=O)c2ccc(C)cc2)C1 (stereo unspecified) | inconclusive: 35.5 µM [activator, single point] and inconclusive: 35.5 µM [activator, partial curve] | 
12 | COc1cc(F)c(C2=CC(=O)C[C@H](c3ccc(Cl)cc3)C2)cc1F | inconclusive: 31.6 µM [activator, single point] | 
13 | O=C(CSc1nccn1-c1ccc(F)cc1)Nc1ccc(OC(F)(F)F)cc1 | active: 15.8 µM | 
14 | Cc1cc(OCc2cc(C(=O)N(C)Cc3ccccn3)no2)cc(C)c1Cl | inconclusive: 10 µM [activator, partial curve] | 
15 | O=C(CCl)c1cc2c3c(c1)CC(=O)N3CCC2 | inconclusive: 8.91 µM [activator, partial curve] | 
16 | CCc1ccccc1NC(=O)c1ccc2c(O)c(S(=O)(=O)c3ccccc3)c(=O)[nH]c2c1 | inconclusive: 6.31 µM [activator, single point] | 
17 | O=C(NCc1ccco1)c1cccc(-c2nnc(-c3ccccc3)o2)c1 | inconclusive: 15.8 µM [activator, single point] | 
18 | O=C(c1ccc(Cn2cc(Cl)cn2)cc1)N1CCN(c2ccccc2)CC1 | inconclusive: 14.1 µM [activator, single point] | 
19 | Cc1c(Cl)c([N+](=O)[O-])nn1CCCC(=O)Nc1ccc(Cl)cc1Cl | inconclusive: 31.6 µM [activator, single point] | 
20 | CCn1cc(Br)c(C(=O)Nc2ccc(Cl)cc2Cl)n1 | active: 4.47 µM | 
21 | O=C(COC(=O)c1ccccc1)c1ccc(Br)cc1 | inconclusive: 11.2 µM [activator, single point] | 
22 | CCOC(=O)c1sc2nc(CSc3ccccc3)nc(N3CCC(C(N)=O)CC3)c2c1C | inconclusive: 31.6 µM [activator, single point] | 

Row | Structure (SMILES) | Potency | growth rescue (activation)
23 | COc1ccccc1CNS(=O)(=O)c1ccc(Br)s1 | active: 12.6 µM | 
24 | COC(=O)c1ccc(Nc2nnc(-c3ccc(C)c(S(=O)(=O)N4CCN(C)CC4)c3)c3ccccc23)cc1 | inconclusive: 35.5 µM [activator, partial curve, poor fit] | 
25 | CC1CC(OC(=O)c2ccccc2C(=O)c2ccc(Cl)cc2)C(=O)O1 (stereo unspecified) | inconclusive: 1.78 µM [activator, partial curve] | 
26 | COc1ccc(-c2cc(OC(=O)c3ccc(Cl)cc3)c3c(C)oc(C)c3c(=O)c2)cc1 | inactive | 
27 | CN1Cc2c(N3CCOCC3)nc(SCc3ccccc3)c(C#N)c2CC1(C)C | inactive | 
28 | COc1ccc(NC(=O)CSc2nc(-c3ccc(OC)cc3)[nH]c2-c2ccc(OC)cc2)cc1 | inactive | 
29 | Cc1ccc(C(=O)n2c(-c3ccccc3)cnc2SCC(=O)Nc2ccccc2)cc1 | inconclusive: 4.47 µM [activator, full curve, poor fit] | 
30 | CC1(Cc2ccccc2F)C(=O)Nc2c(Cl)ccc(Cl)c21 (stereo unspecified) | inactive | 
31 | COC(=O)c1ccc(CSc2cc(C)c3ccccc3n2)o1 | inconclusive: 14.1 µM [activator, single point] | 
32 | S=c1[nH]nc(C2CCCCC2)n1/N=C/C(Cl)=C\c1ccccc1 | inconclusive: 14.1 µM [activator, single point] | 
33 | O=S(=O)(c1ccc(F)cc1)N1CCC(O)(c2ccc3c(c2)OCO3)CC1 | inconclusive: 15.8 µM [activator, single point] | 
34 | CCOc1ccccc1NC(=O)CSc1nc(N)c(C#N)cc1C#N | inactive | 
35 | CC1=C(C(=O)N(C)C)CC(CC(=O)NCc2cccc3ccccc23)C(=O)N1CCCN1CCCC1=O (stereo unspecified) | inconclusive: 0.316 µM [activator, full curve, poor fit] | 
36 | COc1ccc(CN=C2NC(=O)CC(C(=O)Nc3ccc(Cl)cc3)S2)cc1 (stereo unspecified) | inconclusive: 15.8 µM [activator, single point] | 
37 | Cc1ccc(N=C2SCCCN2C(=O)c2cccc(N3C(=O)CCC3=O)c2)cc1Cl | inconclusive: 1.41 µM [activator, partial curve] | 
38 | CC(C)C1C(=O)N(Cc2cn(CCC3OCCO3)nn2)CCS(=O)(=O)N1Cc1ccc(-c2ccc(F)cc2)cc1 (stereo unspecified) |  | inconclusive: 30.2% [activator]
39 | Cc1ccccc1CN(c1ccc(C(=O)Nc2ccccc2C(=O)N2CCCC2)cc1)S(C)(=O)=O |  | inconclusive: 24.3% [activator]
40 | CCOC(=O)c1c(C)oc2ncnc(N3CCN(c4ccccc4OC)CC3)c12 | inconclusive: 8.91 µM [activator, partial curve] | 
41 | CC1CCN(c2ccc(-c3cccc(NC(=O)c4ccco4)c3)nn2)CC1 | inconclusive: 14.1 µM [activator, single point] | 
42 | Cc1cc(C=O)c(C)n1-c1ccc(NC2CCCC2)c([N+](=O)[O-])c1 | inconclusive: 25.1 µM [activator, single point] | 
43 | CCOc1ccc(C(=O)C2CCN(C(=O)c3ccc([N+](=O)[O-])cc3)CC2)cc1 | inconclusive: 10 µM [activator, partial curve, poor fit] | 
44 | Fc1ccccc1N=C1NN=C(c2ccccc2)CS1 | inconclusive: 11.2 µM [activator, partial curve] | 

Row | Structure (SMILES) | Potency | growth rescue (activation)
45 | Cc1ccc(NC(=O)Cc2ccc(-n3c(C)nc4cccnc43)cc2)cc1C | inactive | 
46 | Cc1nn(-c2ccccc2)c(OC(=O)C(C)C)c1Sc1ccccc1 | inconclusive: 17.8 µM [activator, partial curve] | 
47 | CCc1ccccc1N(C)C(=O)Cc1c(C(=O)O)c(C)cn1C | inactive | 
48 | COc1ccc(-c2csc(-n3cccn3)n2)cc1 | active: 10 µM | 
49 | CCOc1ccc(OCCC(=O)OCC(=O)N2CCN(S(=O)(=O)c3ccc(Cl)cc3)CC2)cc1 | active: 12.6 µM | 
50 | CC1(C)C(C=C(Cl)Cl)C1C(=O)N1CCN(c2ccccc2)CC1 (stereo unspecified) | inconclusive: 31.6 µM [activator, single point] | 
51 | COC(=O)CN1C(=O)C2(OCCCO2)c2cc(Br)ccc21 | inactive | 
52 | O=S(=O)(CCSc1nc2ccccc2o1)c1nc2ccccc2s1 | active: 11.2 µM | 
53 | COc1ccc(NC(=O)n2nc(OC(=O)c3cccs3)cc2N)cc1 | inconclusive: 35.5 µM [activator, single point] | 
54 | O=C(Nc1cccc([N+](=O)[O-])c1)c1ccc2c(c1)OCCO2 | inconclusive: 12.6 µM [activator, single point] | 
55 | COc1ccc(NC(=O)Cn2c(=O)n(CCCC(=O)NCc3ccccc3Cl)c(=O)c3ccccc32)c(OC)c1 | inactive | 
56 | CCN1CCC[C@H]1CNCCCn1cnc2c(SC)ncnc21 | inconclusive: 2.82 µM [activator, full curve, poor fit] | 
57 | Cc1cccc(CNC(=O)c2ccc3c(c2)N(C)CCS3)c1 | inconclusive: 14.1 µM [activator, partial curve] and inconclusive: 15.8 µM [activator, single point] | 
58 | Cn1cnc([N+](=O)[O-])c1Sc1ccc(Br)cc1 | inconclusive: 22.4 µM [activator, partial curve] | 
59 | CC1Oc2ccccc2OC1(O)c1ccc2ccccc2n1 (stereo unspecified) | inconclusive: 12.6 µM [activator, partial curve] | 
60 | O=C(CC(C(=O)O)c1ccc(Cl)cc1)c1ccc(Br)cc1 (stereo unspecified) | inconclusive: 31.6 µM [activator, single point] | 
61 | Fc1ccc(N2CCN(Cc3nnc(-c4ccccc4Cl)o3)CC2)cc1 | inconclusive: 10 µM [activator, partial curve] | 
62 | Brc1ccc(-c2csc3ncnc(-n4nnc5ccccc54)c23)cc1 | inconclusive: 10 µM [activator, partial curve] | 
63 | O=C(Nc1ccc(Cl)cn1)c1cccc2ccccc12 | inconclusive: 35.5 µM [activator, partial curve] | 
64 | CN(c1ccccc1)S(=O)(=O)c1ccc(C(=O)N2CCN(c3ccccc3F)CC2)cc1 | inconclusive: 35.5 µM [activator, single point] | 
65 | N#Cc1nc(-c2ccc(COc3ccc(Cl)cc3)o2)oc1N1CCCCC1 | inactive | 
66 | O=C(CSc1nn(-c2ccccc2)c(=S)s1)Nc1ncccn1 | inconclusive: 6.31 µM [activator, partial curve] | 
